The values below come from PMC6736072 (Nucleic Acids Research, 2019).

In this assay the target is flag-Rod (UniProt P50748 1-2209). Put plainly: pull-down.
Sequence of UniProt P50748 (P50748 whole entry): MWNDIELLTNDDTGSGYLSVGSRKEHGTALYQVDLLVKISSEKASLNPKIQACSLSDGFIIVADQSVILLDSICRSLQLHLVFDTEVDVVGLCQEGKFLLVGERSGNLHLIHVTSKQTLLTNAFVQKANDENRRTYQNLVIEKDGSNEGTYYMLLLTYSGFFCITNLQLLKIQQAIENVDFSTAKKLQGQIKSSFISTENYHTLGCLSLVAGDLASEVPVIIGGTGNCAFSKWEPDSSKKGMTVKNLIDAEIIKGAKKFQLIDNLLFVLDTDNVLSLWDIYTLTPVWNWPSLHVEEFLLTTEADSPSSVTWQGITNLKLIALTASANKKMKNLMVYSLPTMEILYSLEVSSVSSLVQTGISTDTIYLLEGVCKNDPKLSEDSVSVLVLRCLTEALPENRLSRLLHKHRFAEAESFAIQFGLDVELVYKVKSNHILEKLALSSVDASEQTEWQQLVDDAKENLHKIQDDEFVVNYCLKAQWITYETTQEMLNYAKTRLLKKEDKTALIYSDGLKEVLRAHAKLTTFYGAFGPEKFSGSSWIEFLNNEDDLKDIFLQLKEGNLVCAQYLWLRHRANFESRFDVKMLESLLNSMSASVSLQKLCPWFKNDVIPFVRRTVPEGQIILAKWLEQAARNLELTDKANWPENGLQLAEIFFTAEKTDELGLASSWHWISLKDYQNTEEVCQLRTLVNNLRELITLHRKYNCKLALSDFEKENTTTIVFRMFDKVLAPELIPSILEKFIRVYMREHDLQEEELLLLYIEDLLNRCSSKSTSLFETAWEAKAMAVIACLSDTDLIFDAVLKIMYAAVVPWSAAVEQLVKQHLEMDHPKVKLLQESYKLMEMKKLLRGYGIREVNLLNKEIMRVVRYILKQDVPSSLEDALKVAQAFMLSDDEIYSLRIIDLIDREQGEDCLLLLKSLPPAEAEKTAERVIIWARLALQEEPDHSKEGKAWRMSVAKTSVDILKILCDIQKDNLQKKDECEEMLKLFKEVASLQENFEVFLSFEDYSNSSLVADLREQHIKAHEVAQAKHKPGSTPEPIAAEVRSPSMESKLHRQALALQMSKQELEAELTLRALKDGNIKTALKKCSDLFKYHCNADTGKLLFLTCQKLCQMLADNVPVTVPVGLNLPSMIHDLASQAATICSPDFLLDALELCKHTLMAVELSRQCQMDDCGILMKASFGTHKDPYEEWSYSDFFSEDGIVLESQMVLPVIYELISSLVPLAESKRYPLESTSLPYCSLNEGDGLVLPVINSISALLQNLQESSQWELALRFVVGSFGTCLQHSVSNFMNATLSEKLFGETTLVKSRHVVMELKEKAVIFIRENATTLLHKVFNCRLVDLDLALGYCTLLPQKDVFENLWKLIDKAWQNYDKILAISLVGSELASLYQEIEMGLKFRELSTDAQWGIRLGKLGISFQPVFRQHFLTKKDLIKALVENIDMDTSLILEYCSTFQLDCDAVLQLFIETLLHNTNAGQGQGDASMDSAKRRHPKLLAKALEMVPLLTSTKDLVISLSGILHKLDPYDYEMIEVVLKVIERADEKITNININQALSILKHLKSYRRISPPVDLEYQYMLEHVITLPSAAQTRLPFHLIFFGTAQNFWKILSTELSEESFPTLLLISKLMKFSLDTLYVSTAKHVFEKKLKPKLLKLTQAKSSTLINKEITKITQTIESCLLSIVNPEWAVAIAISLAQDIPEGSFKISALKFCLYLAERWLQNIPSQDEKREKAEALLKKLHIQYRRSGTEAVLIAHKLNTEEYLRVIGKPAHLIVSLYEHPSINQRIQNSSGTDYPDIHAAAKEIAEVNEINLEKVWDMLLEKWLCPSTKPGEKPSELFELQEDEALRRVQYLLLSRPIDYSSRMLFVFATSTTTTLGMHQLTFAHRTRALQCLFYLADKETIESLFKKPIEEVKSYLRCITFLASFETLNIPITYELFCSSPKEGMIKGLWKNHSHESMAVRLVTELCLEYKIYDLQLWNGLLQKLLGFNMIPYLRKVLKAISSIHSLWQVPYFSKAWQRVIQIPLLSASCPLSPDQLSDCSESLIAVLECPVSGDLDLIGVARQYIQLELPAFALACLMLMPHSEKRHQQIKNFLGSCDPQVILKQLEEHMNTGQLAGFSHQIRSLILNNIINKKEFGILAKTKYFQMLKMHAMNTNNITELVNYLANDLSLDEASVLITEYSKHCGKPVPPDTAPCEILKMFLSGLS

B1: reconstituted Mad1–Mad2 complex, phosphorylated in vitro by ULK1 (complex)
chain 1: MEDLGENTMVLSTLRSLNNFISQRVEGGSGLDISTSAPGSLQMQYQQSMQLEERAEQIRSKSHLIQVEREKMQMELSHKRARVELERAASTSARNYEREVDRNQELLTRIRQLQEREAGAEEKMQEQLERNRQCQQNLDAASKRLREKEDSLAQAGETINALKGRISELQWSVMDQEMRVKRLESEKQELQEQLDLQHKKCQEANQKIQELQASQEARADHEQQIKDLEQKLSLQEQDAAIVKNMKSELVRLPRLERELKQLREESAHLREMRETNGLLQEELEGLQRKLGRQEKMQETLVGLELENERLLAKLQSWERLDQTMGLSIRTPEDLSRFVVELQQRELALKDKNSAVTSSARGLEKARQQLQEELRQVSGQLLEERKKRETHEALARRLQKRVLLLTKERDGMRAILGSYDSELTPAEYSPQLTRRMREAEDMVQKVHSHSAEMEAQLSQALEELGGQKQRADMLEMELKMLKSQSSSAEQSFLFSREEADTLRLKVEELEGERSRLEEEKRMLEAQLERRALQGDYDQSRTKVLHMSLNPTSVARQRLREDHSQLQAECERLRGLLRAMERGGTVPADLEAAAASLPSSKEVAELKKQVESAELKNQRLKEVFQTKIQEFRKACYTLTGYQIDITTENQYRLTSLYAEHPGDCLIFKATSPSGSKMQLLETEFSHTVGELIEVHLRRQDSIPAFLSSLTLELFSRQTVA
chain 2: [letters of about 200 residues not shown]
modifications: phosphoserine at 546 (in vitro phosphorylation by ULK1)
As to B1, the binding result is “binds”.
